The supplement of paper PMC4723716
± gives the uncertainty stated by the source. Whole data set: some 9,900 compounds, median “viability index relative to DMSO control” near 1, cut for the lowest 2% near 0.85. Some of the results follow.

What follows are molecules tested on Plasmodium falciparum NF54 stage V gametocytes (assay: viability index relative to DMSO control (fraction); higher = less gametocyte killing). Conditions: 2.5 µM, library set: Broad Institute DOS, incubation time: 72 h.
Summary of the method: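 Viability index is the count of red-stained particles in a well divided by the plate mean of solvent-only wells. Particles of 20–70 µm2 were counted in one imaged field per well after one to two hours with 3 µl of 2.5 µM MitoTracker Red CMXRos and 0.13% saponin. Before staining, P. falciparum NF54 stage V gametocytes in serum-free medium (0.75% gametocytemia, 1.25% hematocrit, 10 µl, 1,536-well plates) were kept with compound at 2.5 µM for 72 hr at 37°C under low oxygen.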

Row | Structure (SMILES) | viability index
1 | C[C@H]1CN([C@@H](C)CO)C(=O)CCCn2nncc2CO[C@H]1CN(C)C(=O)c1ccc2ccn(C)c2c1 | 1.015 ± 0.0067
2 | CCCC#Cc1cnc2c(c1)C(=O)N([C@@H](C)CO)C[C@@H](C)[C@@H](CN(C)C(=O)Nc1cc(F)ccc1F)O2 | 1.02 ± 0.012
3 | N#C[C@H]1N[C@H](CO)[C@@H]1c1ccc(C2=CCCC2)cc1 | 1.035 ± 0.0096
4 | CC(C)[C@@H]1C(=O)N[C@@H](c2cccc(Cl)c2)C/C=C/C[C@@H](C)Oc2ccccc2C(=O)N1C.CC(C)[C@@H]1C(=O)N[C@@H](c2cccc(Cl)c2)C/C=C\C[C@@H](C)Oc2ccccc2C(=O)N1C | 0.993 ± 0.049
5 | COCC#Cc1ccc([C@@H]2[C@H]3CN(C(=O)c4ccncc4)CC(=O)N3[C@H]2CO)cc1 | 1.05 ± 0.0086
6 | C/C=C/c1ccc([C@@H]2[C@@H](CO)N3CCCCN(CCC(F)(F)F)C[C@@H]23)cc1 | 1.06 ± 0.049
7 | C[C@@H]1CCCCO[C@@H](CN(C)S(=O)(=O)c2cn(C)cn2)[C@@H](C)CN([C@H](C)CO)C(=O)c2cc(NC(=O)Nc3cccc4ccccc34)ccc2O1 | 1.05 ± 0.042
8 | COc1ccc(CN2[C@H](CO)[C@H]3c4ccccc4NC[C@H]32)cc1 | 1.09 ± 0.013
9 | C[C@H](CO)N1C[C@H](C)[C@H](CN(C)Cc2ccc(Oc3ccccc3)cc2)Oc2ccc(N(C)C)cc2C1=O | 1.01 ± 0.043
10 | COCCNC(=O)C[C@H]1CC[C@@H]2[C@H](COC[C@@H](O)CN2Cc2ccc(Cl)c(Cl)c2)O1 | 1.06 ± 0.066
11 | CC[C@H]1C/C=C\C[C@H](c2ccccc2)NC(=O)CCC(=O)N1 | 1.08 ± 0.011
12 | N#Cc1ccc(-c2ccc3c(c2)[C@H]2[C@H](CCN2C(=O)C2CCCCC2)[C@H](CO)N3)cc1 | 1.11 ± 0.057
13 | CCCC(=O)Nc1ccc2c(c1)C(=O)N(C)C[C@@H](OC)[C@H](C)CN(Cc1ccc(F)cc1)[C@H](C)CO2 | 1.01 ± 0.061
14 | C/C=C/c1ccccc1[C@H]1[C@@H](C#N)N(C(=O)c2cccnc2)[C@@H]1CO | 1.13 ± 0.14
15 | C[C@H]1CN([C@@H](C)CO)C(=O)c2cccc(NC(=O)Nc3ccc(F)cc3)c2O[C@@H]1CN(C)S(=O)(=O)c1ccc(Cl)cc1 | 0.96 ± 0.085
16 | Cc1ccccc1S(=O)(=O)N1CC[C@@H]2[C@H](CO)Nc3ccc(-c4ccc(F)cc4)cc3[C@@H]21 | 1.02 ± 0.079
17 | CCCN1C[C@@H](C)[C@@H](OC)CN(C)C(=O)c2cc(NC(=O)Nc3cccc(F)c3)ccc2OC[C@@H]1C | 1.01 ± 0.032
18 | C[C@H](CO)N1C[C@H](C)[C@H](CN(C)C(=O)CN2CCOCC2)Oc2ncc(-c3ccncc3)cc2C1=O | 1.12 ± 0.034
19 | CO[C@@H]1CN(C)C(=O)c2ccc(NS(=O)(=O)c3ccc(C)cc3)cc2OC[C@@H](C)N(C)C[C@@H]1C | 1.06 ± 0.013
20 | CC(C)NC(=O)N(C)C[C@H]1Oc2c(NS(=O)(=O)c3cccs3)cccc2C(=O)N([C@@H](C)CO)C[C@H]1C | 1.02 ± 0.06
21 | COC(=O)C[C@@H]1CC[C@@H]2[C@@H](COc3ccc(NC(=O)c4ccc(C(F)(F)F)cc4)cc3C(=O)N2C)O1 | 1.13 ± 0.065
22 | COc1ccc2c3c([nH]c2c1)[C@@H](CO)N(C[C@]31CCN(CC1)C(=O)C1CCCCC1)C(=O)NC(C)C | 0.935 ± 0.079

Row | Structure (SMILES) | viability index
23 | C[C@H]1CN([C@@H](C)CO)C(=O)c2ccccc2-c2ccccc2CO[C@@H]1CN(C)Cc1cccnc1 | 1.03 ± 0.073
24 | COc1ccc2c3c([C@H](CO)N(C[C@]33CCN(CC3)C(=O)CN(C)C)C(=O)C3CC3)n(C)c2c1 | 0.9351 ± 0.0013
25 | C[C@H]1CN([C@@H](C)CO)C(=O)c2ccccc2-c2ccccc2CO[C@H]1CN(C)Cc1ccc2c(c1)OCCN2C | 1 ± 0.1
26 | CO[C@@H]1CN(C)C(=O)c2ccc(NC(=O)Nc3ccccc3)cc2OC[C@H](C)N(C(=O)CC2CC2)C[C@@H]1C | 1.01 ± 0.042
27 | C[C@@H]1CN([C@@H](C)CO)C(=O)c2ccccc2-c2ccccc2CO[C@@H]1CN(C)C(=O)Nc1ccnc(N2CCOCC2)c1 | 1.056 ± 0.0095
28 | C[C@H](CO)N1C[C@H](C)[C@@H](CN(C)Cc2ccccc2C(=O)O)OCc2cnnn2CCCC1=O | 0.915 ± 0.013
29 | C[C@@H](NC(=O)C[C@@H]1CC[C@@H]2[C@H](COC[C@H](O)CN2C(=O)Nc2cccc(Cl)c2)O1)c1ccccc1 | 1.1 ± 0.035
30 | C[C@H]1CN([C@@H](C)CO)C(=O)c2cccc(NC(=O)Nc3ccc4c(c3)OCO4)c2O[C@@H]1CN(C)S(C)(=O)=O | 1.05 ± 0.055
31 | C[C@@H]1CN([C@@H](C)CO)S(=O)(=O)c2ccc(-c3ccc(F)cc3)cc2O[C@H]1CN(C)Cc1ccccc1C(=O)O | 1.03 ± 0.077
32 | COc1ccc(S(=O)(=O)N(C)C[C@@H]2Oc3ccc(NC(=O)Cc4cn(C)c5ccccc45)cc3C(=O)N([C@@H](C)CO)C[C@@H]2C)cc1 | 0.947 ± 0.04
33 | COc1cccc(S(=O)(=O)Nc2ccc3c(c2)C(=O)N(C)C[C@@H](OC)[C@H](C)CN(Cc2ccccc2F)[C@H](C)CO3)c1 | 0.9171 ± 0.0073
34 | COCC(=O)N1CC[C@@H]2[C@H]1c1cc(-c3cccc(F)c3)ccc1N(C)[C@H]2CO | 0.9829 ± 0.0057
35 | CC(C)NC(=O)N1[C@@H](CO)[C@@H]2c3ccccc3N(C)C[C@@H]21 | 1.01 ± 0.17
36 | C[C@H]1CN([C@@H](C)CO)C(=O)CCCn2nncc2CO[C@@H]1CN(C)Cc1ccccc1C(=O)O | 1.04 ± 0.031
37 | CN1CCN(C(=O)C[C@H]2CC[C@H]3[C@@H](COC[C@@H](O)CN3C(=O)Nc3ccc4c(c3)OCO4)O2)CC1 | 1.06 ± 0.0044
38 | C[C@H]1CN([C@@H](C)CO)C(=O)Cc2cc(NC(=O)C3CCCCC3)ccc2O[C@@H]1CN(C)Cc1ccc(Cl)c(Cl)c1 | 0.985 ± 0.021
39 | C[C@@H]1CN([C@@H](C)CO)C(=O)c2cc(C#CC3(O)CCCC3)cnc2O[C@@H]1CN(C)S(=O)(=O)c1cccc(F)c1 | 1.06 ± 0.076
40 | C[C@@H]1CN([C@H](C)CO)C(=O)c2cccc(N(C)C)c2O[C@@H]1CN(C)Cc1ccncc1 | 1.06 ± 0.092
41 | COc1cccc(-c2ccc3c(c2)[C@@H]2[C@@H](CCN2C(=O)c2ccccn2)[C@H](CO)N3)c1 | 0.887 ± 0.028
42 | CO[C@@H]1CN(C)C(=O)c2ccc(NS(C)(=O)=O)cc2OC[C@H](C)N(CC2CC2)C[C@@H]1C | 1.1 ± 0.054
43 | O=C(NC[C@H]1[C@H](c2ccccc2)[C@@H](CO)N1Cc1ccccn1)C1CCCC1 | 0.9562 ± 0.0077
44 | COc1cccc(-c2ccc([C@H]3[C@@H](CO)N4C(=O)CN(C(=O)c5cccnc5)C[C@H]34)cc2)c1 | 0.918 ± 0.11
